This is an account of results in PubChem BioAssay AID2202238 (Ras Initiative Chemistry Research Team, Frederick National …, 2025).

Some of the results follow. These are further read-outs of the screen, such as a control signal, another cell line or another target. No call is given for them.

This assay deals with GTPase KRas (Homo sapiens) (UniProt P01116). The assay is described as follows: Covalent labelling of cysteine mutants by fragments, read by mass spectrometry (AID 2202238). On the set-up: protein at 5 µM with 500 µM competing thiol for 1.5 h. As to conditions: KRAS G12D cysteine mutants, disulfide tethering, MALDI-TOF labeling, stronger effect = higher value, fragment at 500 µM.
Chain of UniProt P01116 (P01116 whole entry, looked up, the tested form may be a part): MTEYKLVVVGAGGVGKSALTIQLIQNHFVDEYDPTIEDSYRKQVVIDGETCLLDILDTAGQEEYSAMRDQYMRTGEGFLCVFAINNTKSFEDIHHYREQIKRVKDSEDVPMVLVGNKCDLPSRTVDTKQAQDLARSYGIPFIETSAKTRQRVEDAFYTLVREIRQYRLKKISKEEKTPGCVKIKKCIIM
[1] abbreviates: measured here: G60C mutant labeling.
The mark [2] stands for this setting: measured here: G75C mutant labeling.
[3] abbreviates: measured here: H94C mutant labeling.
[4] abbreviates: measured here: I36C mutant labeling.
[5] abbreviates: measured here: L120C mutant labeling.
Where [6] appears, read: measured here: M67C mutant labeling.
Where [7] appears, read: measured here: M72C mutant labeling.
The mark [8] stands for this setting: measured here: N26C mutant labeling.
Setting [9] is: measured here: N86C mutant labeling.
Setting [10] is: measured here: P121C mutant labeling.
Where [11] appears, read: measured here: S122C mutant labeling.
Where [12] appears, read: measured here: S136C mutant labeling.

With `O=C(NCCS)C(O)Cc1ccccc1Cl` (stereo not drawn), the percent labeling under setting [1] amounted to 59.4%; the percent labeling under setting [2] was determined as 26.7%; the percent labeling under setting [3] came to 39.7%; the percent labeling under setting [4] came out at 25.7%; the percent labeling under setting [5] came out at 50.1%; the percent labeling under setting [6] was found to be 37.9%. Also, the percent labeling came to 60.3% under setting [7]; 36.8% under setting [8]; 24.2% under setting [9]; 42.8% under setting [10]; 27.6% under setting [11]; 48% under setting [12].

Consider `Cc1cc(NC(=O)CCS)nn1Cn1cc(Cl)cn1`, for which the percent labeling runs as follows: under setting [2], 18.8%; under setting [3], 38.3%; under setting [4], 41%; under setting [5], 35%; under setting [6], 34%; under setting [7], 39.9%. Also, the percent labeling runs as follows: under setting [9], 34.8%; under setting [10], 26.9%; under setting [11], 25.6%; under setting [12], 54.6%.

As to `O=C(NCCS)c1ccc(C(F)(F)F)cc1N1CCCC1`, the percent labeling by setting is: under setting [1], 22.9%; under setting [2], 6.1%; under setting [3], 11.7%; under setting [4], 8.2%; under setting [5], 9.7%; under setting [6], 4.4%. The percent labeling by setting is: under setting [7], 4.8%; under setting [8], 10.1%; under setting [9], 5%; under setting [10], 10.3%; under setting [11], 5.6%; under setting [12], 7.7%.

Regarding `O=C(CCS)Nc1cccc(-c2noc(C(F)F)n2)c1`, the percent labeling by setting is: under setting [2], 9.2%; under setting [3], 19.7%; under setting [4], 25%; under setting [5], 19.8%; under setting [6], 15.3%; under setting [7], 36.1%. Also, the percent labeling came to 16.2% under setting [9], 14.4% under setting [10], 13.7% under setting [11] and 26.5% under setting [12].

`CC1CCc2ccccc2N1CCC(=O)NCCS` (stereo not drawn): the percent labeling stood at 35.8% under setting [1]; 10% under setting [2]; 20.9% under setting [3]; 17.9% under setting [4]; 21.3% under setting [5]; 33% under setting [6]. The percent labeling amounted to 30.6% under setting [7]; 32.4% under setting [8]; 6.5% under setting [9]; 23.2% under setting [10]; 18.2% under setting [11]; 31.9% under setting [12].

As for `Cc1nc2cc(C(=O)NCCS)ccc2c(=O)[nH]1`, the percent labeling is 25.6% under setting [1]; 16.8% under setting [2]; 23.5% under setting [3]; 13.1% under setting [4]; 25.3% under setting [5]; 28.7% under setting [6]. This compound returned a percent labeling under setting [7] of 39.3%; a percent labeling under setting [8] of 51%; a percent labeling under setting [9] of 25.1%; a percent labeling under setting [10] of 9.3%; a percent labeling under setting [11] of 19.2%; a percent labeling under setting [12] of 32.9%.

In the case of `CN1C(=O)CCc2ccc(C(=O)NCCS)cc21`, the percent labeling by setting is: under setting [1], 44.1%; under setting [2], 24.9%; under setting [3], 41.2%; under setting [4], 32.7%; under setting [5], 38%; under setting [6], 40.8%. For the same compound, the percent labeling came out at 64.4% under setting [7]; 56.1% under setting [8]; 27.1% under setting [9]; 33.1% under setting [10]; 31.8% under setting [11]; 52.2% under setting [12].

In turn, `CN(C)CCN(Cc1cccs1)C(=O)CCS` had a percent labeling under setting [2] of 22.8%; a percent labeling under setting [3] of 51%; a percent labeling under setting [4] of 51.2%; a percent labeling under setting [5] of 34.6%; a percent labeling under setting [6] of 55.5%; a percent labeling under setting [7] of 53.2%. The percent labeling by setting is: under setting [9], 46.3%; under setting [10], 40.2%; under setting [11], 40.5%; under setting [12], 66%.

On to `CC1CCN(c2ccc(C(=O)NCCS)cc2)C1` (stereo not drawn), for which the percent labeling runs as follows: under setting [1], 0%; under setting [2], 4.3%; under setting [3], 5.6%; under setting [4], 0%; under setting [5], 0%; under setting [6], 5.2%. Further, the percent labeling reads like this: under setting [7], 41.3%; under setting [8], 22.7%; under setting [9], 3.7%; under setting [10], 0%; under setting [11], 4.6%; under setting [12], 0%.

In the case of `O=C(NCCS)[C@@H]1CCCN1C(=O)Nc1ccc2c(c1)OCCO2`, the percent labeling was found to be 24.3% under setting [1]; 10.8% under setting [2]; 27.2% under setting [3]; 15.4% under setting [4]; 37% under setting [5]; 18.5% under setting [6]. Moreover, the percent labeling turned out to be 16.6% under setting [7]; 31.1% under setting [8]; 17.6% under setting [9]; 23.2% under setting [10]; 19.7% under setting [11]; 29.3% under setting [12].

As to `CCNC(=O)COc1cccc(CNC(=O)CCS)c1`, the percent labeling under setting [2] stood at 9.2%; the percent labeling under setting [3] turned out to be 32.3%; the percent labeling under setting [4] was 36.8%; the percent labeling under setting [5] is 28.6%; the percent labeling under setting [6] stood at 31.9%; the percent labeling under setting [7] is 22.1%. For the same compound, the percent labeling was found to be 34.2% under setting [9], 30% under setting [10], 34.2% under setting [11] and 45.6% under setting [12].

Take `O=C(NCCS)C1CCN(Cc2coc(-c3ccccc3)n2)CC1`: the percent labeling is 44% under setting [1]; 21.4% under setting [2]; 40.2% under setting [3]; 40.2% under setting [4]; 27.2% under setting [5]; 62.8% under setting [6]. Further, the percent labeling under setting [7] came to 19.5%; the percent labeling under setting [8] turned out to be 44.7%; the percent labeling under setting [9] is 24.6%; the percent labeling under setting [10] stood at 26.2%; the percent labeling under setting [11] came to 23.5%; the percent labeling under setting [12] was determined as 42.5%.

Turning to `COc1ccc2cccc(CC(=O)NCCS)c2c1`, the percent labeling by setting is: under setting [1], 46%; under setting [2], 17.3%; under setting [3], 21.1%; under setting [4], 22.4%; under setting [5], 39.6%; under setting [6], 19.3%. The percent labeling amounted to 42.1% under setting [7]; 26% under setting [8]; 14.1% under setting [9]; 19.9% under setting [10]; 16.4% under setting [11]; 31.7% under setting [12].

Consider `O=C(CCS)N1Cc2cccn2C2(CCOCC2)C1`, for which the percent labeling is, setting by setting: under setting [2], 3.7%; under setting [3], 10.7%; under setting [4], 17.2%; under setting [5], 11.4%; under setting [6], 2.2%; under setting [7], 4.9%. The percent labeling under setting [9] is 13.5%, the percent labeling under setting [10] was 15.4%, the percent labeling under setting [11] came out at 14.7% and the percent labeling under setting [12] was determined as 12.8%.
